Reference: PubChem BioAssay AID652104 (National Center for Advancing Translational Sciences (NCATS), 2013)
The whole screen tested about 410,000 compounds, of which about 7,200 (1.8%) were called active. The inconclusive results got no clear call from the source; some entries with a clear call stand among them for comparison. The call rests on the fitted dose curve; in most records, active means well fitted activation curve with a large enough effect; inconclusive means small, poorly fitted or top-dose-only effect, or another doubt; inactive means no such curve, though single readings can be large or run the other way. No potency is given beside an inconclusive call; the fits are too rough.

Assay: qHTS of TDP-43 Inhibitors; further: nearly all actives have a fitted effect of over 50% in size; on growth rescue (activation): % of control where 0% means no effect
Details: TDP-43 expressing yeast growth rescue, BacTiter-Glo, 24 h; growth rescue (activation): at 46.1 µM (top of the series) unless noted
Procedure, shortened: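 Luminescence from BacTiter-Glo reports growth of TDP-43-expressing yeast after 24 hr at 30 deg C with compound. Cells were raffinose-pregrown to mid-log, then seeded in galactose medium at OD600=0.02.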
Potency means the concentration at half of the fitted maximal effect; tags describe the fitted curve by direction and shape.

SMILES | Potency | growth rescue (activation)
CC1CC(C)CN(S(=O)(=O)c2ccc(C(=O)N(C)Cc3ccccc3)cc2)C1 (stereo not drawn) | inconclusive [activator, partial curve] | –
O=C(NCc1ccc(F)cc1)c1cc(C2CCCCN2C(=O)c2ccccc2)on1 (stereo not drawn) | inconclusive [activator, partial curve] | –
O=S(=O)(NCCc1c[nH]c2ccccc12)c1ccc(F)cc1 | inconclusive [activator, partial curve] | –
O=C(C1CCCN(S(=O)(=O)c2cccc3nsnc23)C1)N1CCN(c2ccccc2F)CC1 (stereo not drawn) | inconclusive [activator, partial curve, poor fit] | –
Cc1onc(-c2c(Cl)cccc2Cl)c1C(=O)c1ccc(F)cc1 | active: 12.6 µM | –
COc1ccc(-c2csc(C(O)c3cccnc3)n2)cn1 (stereo not drawn) | inconclusive [activator, full curve, poor fit] | –
COC(=O)c1ccc(CN(C)S(=O)(=O)c2cccs2)cc1 | inconclusive [activator, single point] | –
CC(C)NC(=O)NS(=O)(=O)c1cnccc1NC1CC2CCC1C2 (stereo not drawn) | – | inactive: 11.6%
CCOC(=O)c1c(/N=C/N(C)C)sc2c1CCC2 | inconclusive [activator, partial curve] | –
CCN(CC)S(=O)(=O)c1ccc(OC(C)C)c(NC(=O)C2=COCCO2)c1 | inconclusive [activator, partial curve, poor fit] | –
Cc1ccc(Cn2nc3c(cc2=O)CCc2ccccc2-3)cc1 | inconclusive [activator, partial curve] | –
CCc1ccc2oc(C(=O)Nc3cccc(Cl)c3C)cc(=O)c2c1 | inconclusive [activator, partial curve, poor fit] | –
CC(C)CCN(Cc1ccco1)C(=O)c1cc2c(s1)-c1ccccc1OC2 | – | inactive: 11.2%
O=C1N[C@H](Cc2ccccc2)COC(=O)[C@H](Cc2ccc(F)cc2)CC/C=C/C[C@H]1CC(=O)N(CCO)Cc1ccccc1 | inconclusive [activator, partial curve] | –
C=CCn1c(SCC(=O)Nc2cc(C)c(Cl)cc2OC)nnc1-c1ccco1 | inconclusive [activator, single point] | –
S=C(Nc1ccc(Cl)cc1Cl)Nc1ccccc1Oc1ccccc1 | – | inactive: 6.56%
CCc1ccc(NC(=O)CCc2ccc(CC)o2)cc1 | inconclusive [activator, single point] | –
COC(=O)c1cc(C#N)c(Oc2ccccc2)nc1C | inconclusive [activator, single point] | –
